Test results: the supplement of paper PMC8728848
The list shows a part of the results.

Assays:
Experiment in all cases: glycan array binding signal (z-score within array); higher = stronger binding
Conditions in all cases: glycan notation: IUPAC condensed, linker removed
[1] = target: Man(a1-2)Man(a1-3)[Man(a1-2)Man(a1-6)]Man(a1-6)[Man(a1-2)Man(a1-2)Man(a1-3)]Man
Procedure, shortened: (§1)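 The binding signal is a Z-score computed within each array. Data were drawn from 3228 arrays in the Consortium for Functional Glycomics database, restricted to those with a known protein sequence. Scores were averaged over arrays of the same protein sequence at different concentrations or buffers, and over linkers, and negative values can be taken as non-binding.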

[2] = target: Man(a1-2)Man(a1-3)[Man(a1-2)Man(a1-6)]Man(a1-6)[Man(a1-2)Man(a1-2)Man(a1-3)]Man(b1-4)GlcNAc(b1-4)GlcNAc
Procedure, shortened: as §1

[3] = target: Man(a1-2)Man(a1-3)[Man(a1-6)]Man(a1-6)[Man(a1-2)Man(a1-3)]Man(b1-4)GlcNAc(b1-4)GlcNAc
Procedure, shortened: as §1

[4] = target: Man(a1-2)Man(a1-6)[Man(a1-3)]Man(a1-6)[Man(a1-2)Man(a1-2)Man(a1-3)]Man
Procedure, shortened: as §1

[5] = target: Man(a1-2)Man(a1-6)[Man(a1-3)]Man(a1-6)[Man(a1-2)Man(a1-2)Man(a1-3)]Man(b1-4)GlcNAc(b1-4)GlcNAc
Procedure, shortened: as §1

[6] = target: Man(a1-3)[Man(a1-6)]Man
Procedure, shortened: as §1

[7] = target: Man(a1-3)[Man(a1-6)]Man(a1-6)[Man(a1-2)Man(a1-3)]Man(b1-4)GlcNAc(b1-4)GlcNAc
Procedure, shortened: as §1

[8] = target: Man(a1-3)[Man(a1-6)]Man(a1-6)[Man(a1-3)]Man
Procedure, shortened: as §1

[9] = target: Man(a1-3)[Man(a1-6)]Man(a1-6)[Man(a1-3)]Man(b1-4)GlcNAc(b1-4)GlcNAc
Procedure, shortened: as §1

[10] = target: Man(a1-3)[Man(a1-6)]Man(b1-4)GlcNAc(b1-4)GlcNAc
Procedure, shortened: as §1

[11] = target: Man(a1-3)[Man(a1-6)]Man(b1-4)GlcNAc(b1-4)[Fuc(a1-6)]GlcNAc
Procedure, shortened: as §1

[12] = target: Man(a1-6)Man
Procedure, shortened: as §1

[13] = target: Man(b1-4)GlcNAc
Procedure, shortened: as §1

[14] = target: MurNAc(b1-4)GlcNAc
Procedure, shortened: as §1

[15] = target: Neu5Ac(a2-3)Gal
Procedure, shortened: as §1

[16] = target: Neu5Ac(a2-3)Gal(b1-3)GalNAc
Procedure, shortened: as §1

[17] = target: Neu5Ac(a2-3)Gal(b1-3)GalNAc(b1-3)Gal(a1-4)Gal(b1-4)Glc
Procedure, shortened: as §1

[18] = target: Neu5Ac(a2-3)Gal(b1-3)GalNAc(b1-4)Gal(b1-4)Glc
Procedure, shortened: as §1

[19] = target: Neu5Ac(a2-3)Gal(b1-3)GalNAc(b1-4)[Neu5Ac(a2-3)]Gal(b1-4)Glc
Procedure, shortened: as §1

[20] = target: Neu5Ac(a2-3)Gal(b1-3)GalNAc(b1-4)[Neu5Ac(a2-8)Neu5Ac(a2-3)]Gal(b1-4)Glc
Procedure, shortened: as §1

[21] = target: Neu5Ac(a2-3)Gal(b1-3)GalNAc6S
Procedure, shortened: as §1

[22] = target: Neu5Ac(a2-3)Gal(b1-3)GlcNAc
Procedure, shortened: as §1

[23] = target: Neu5Ac(a2-3)Gal(b1-3)GlcNAc(b1-2)Man
Procedure, shortened: as §1

[24] = target: Neu5Ac(a2-3)Gal(b1-3)GlcNAc(b1-2)Man(a1-3)[GlcNAc(b1-4)][Neu5Ac(a2-3)Gal(b1-3)GlcNAc(b1-2)Man(a1-6)]Man(b1-4)GlcNAc(b1-4)GlcNAc
Procedure, shortened: as §1

[25] = target: Neu5Ac(a2-3)Gal(b1-3)GlcNAc(b1-2)Man(a1-3)[Neu5Ac(a2-3)Gal(b1-3)GlcNAc(b1-2)Man(a1-6)]Man(b1-4)GlcNAc(b1-4)GlcNAc
Procedure, shortened: as §1

[26] = target: Neu5Ac(a2-3)Gal(b1-3)GlcNAc(b1-2)[Neu5Ac(a2-3)Gal(b1-3)GlcNAc(b1-4)]Man(a1-6)[Neu5Ac(a2-3)Gal(b1-3)GlcNAc(b1-2)Man(a1-3)]Man(b1-4)GlcNAc(b1-4)GlcNAc
Procedure, shortened: as §1

[27] = target: Neu5Ac(a2-3)Gal(b1-3)GlcNAc(b1-3)Gal(b1-3)GlcNAc
Procedure, shortened: as §1

[28] = target: Neu5Ac(a2-3)Gal(b1-3)GlcNAc(b1-3)Gal(b1-4)GlcNAc
Procedure, shortened: as §1

[29] = target: Neu5Ac(a2-3)Gal(b1-3)GlcNAc(b1-3)GalNAc
Procedure, shortened: as §1

[30] = target: Neu5Ac(a2-3)Gal(b1-3)GlcNAc(b1-6)GalNAc
Procedure, shortened: as §1

[31] = target: Neu5Ac(a2-3)Gal(b1-3)GlcNAc6S
Procedure, shortened: as §1

[32] = target: Neu5Ac(a2-3)Gal(b1-3)[Fuc(a1-4)]GlcNAc
Procedure, shortened: as §1

[33] = target: Neu5Ac(a2-3)Gal(b1-3)[Fuc(a1-4)]GlcNAc(b1-3)Gal(b1-3)[Fuc(a1-4)]GlcNAc
Procedure, shortened: as §1

[34] = target: Neu5Ac(a2-3)Gal(b1-3)[Fuc(a1-4)]GlcNAc(b1-3)Gal(b1-4)[Fuc(a1-3)]GlcNAc
Procedure, shortened: as §1

[35] = target: Neu5Ac(a2-3)Gal(b1-3)[GlcNAc(b1-6)]GalNAc
Procedure, shortened: as §1

[36] = target: Neu5Ac(a2-3)Gal(b1-3)[Neu5Ac(a2-6)]GalNAc
Procedure, shortened: as §1

[37] = target: Neu5Ac(a2-3)Gal(b1-3)[Neu5Ac(a2-6)]GlcNAc(b1-3)[Fuc(a1-3)[Gal(b1-4)]GlcNAc(b1-6)]Gal(b1-4)Glc
Procedure, shortened: as §1

[38] = target: Neu5Ac(a2-3)Gal(b1-3)]Neu5Ac(a2-3)Gal(b1-4)]GlcNAc
Procedure, shortened: as §1

[39] = target: Neu5Ac(a2-3)Gal(b1-4)Glc
Procedure, shortened: as §1

[40] = target: Neu5Ac(a2-3)Gal(b1-4)GlcNAc
Procedure, shortened: as §1

[41] = target: Neu5Ac(a2-3)Gal(b1-4)GlcNAc(b1-2)Man
Procedure, shortened: as §1

[42] = target: Neu5Ac(a2-3)Gal(b1-4)GlcNAc(b1-2)Man(a1-3)[GlcNAc(b1-4)][Neu5Ac(a2-3)Gal(b1-4)GlcNAc(b1-2)Man(a1-6)]Man(b1-4)GlcNAc(b1-4)GlcNAc
Procedure, shortened: as §1

[43] = target: Neu5Ac(a2-3)Gal(b1-4)GlcNAc(b1-2)Man(a1-3)[Neu5Ac(a2-3)Gal(b1-4)GlcNAc(b1-2)Man(a1-6)]Man(b1-4)GlcNAc(b1-4)GlcNAc
Procedure, shortened: as §1

[44] = target: Neu5Ac(a2-3)Gal(b1-4)GlcNAc(b1-2)Man(a1-3)[Neu5Ac(a2-3)Gal(b1-4)GlcNAc(b1-2)Man(a1-6)]Man(b1-4)GlcNAc(b1-4)[Fuc(a1-6)]GlcNAc
Procedure, shortened: as §1

[45] = target: Neu5Ac(a2-3)Gal(b1-4)GlcNAc(b1-2)Man(a1-3)[Neu5Ac(a2-6)Gal(b1-4)GlcNAc(b1-2)Man(a1-6)]Man(b1-4)GlcNAc(b1-4)GlcNAc
Procedure, shortened: as §1

B1: PNGase F (Flavobacterium meningosepticum) (protein)
chain: GIPAPADNTVNIKTFDKVKNAFGDGLSQSAEGTFTFPADVTAVKTIKMFIKNECPNKTCDEWDRYANVYVKNKTTGEWYEIGRFITPYWVGTEKLPRGLEIDVTDFKSLLSGNTELKIYTETWLAKGREYSVDFDIVYGTPDYKYSAVVPVVQYNKSSIDGVPYGKAHTLALKKNIQLPTNTEKAYLRTTISGWGHAKPYDAGSRGCAEWCFRTHTIAINNSNTFQHQLGALGCSANPINNQSPGNWTPDRAGWCPGMAVPTRIDVLNNSLIGSTFSYEYKFQNWTNNGTNGDAFYAISSFVIAKSNTPISAPVVTNLDPHHHHHH
[1]
  glycan array binding signal (z-score): -0.238
[2]
  glycan array binding signal (z-score): 0.516
[3]
  glycan array binding signal (z-score): -0.325
[4]
  glycan array binding signal (z-score): -0.048
[5]
  glycan array binding signal (z-score): -0.095
[6]
  glycan array binding signal (z-score): -0.016
[7]
  glycan array binding signal (z-score): -0.216
[8]
  glycan array binding signal (z-score): 1.07
[9]
  glycan array binding signal (z-score): -0.198
[10]
  glycan array binding signal (z-score): -0.177
[11]
  glycan array binding signal (z-score): -0.252
[12]
  glycan array binding signal (z-score): 0.466
[13]
  glycan array binding signal (z-score): 0.05
[14]
  glycan array binding signal (z-score): -0.216
[15]
  glycan array binding signal (z-score): -0.034
[16]
  glycan array binding signal (z-score): 0.561
[17]
  glycan array binding signal (z-score): -0.331
[18]
  glycan array binding signal (z-score): 0.526
[19]
  glycan array binding signal (z-score): -0.289
[20]
  glycan array binding signal (z-score): -0.236
[21]
  glycan array binding signal (z-score): -0.204
[22]
  glycan array binding signal (z-score): -0.229
[23]
  glycan array binding signal (z-score): -0.187
[24]
  glycan array binding signal (z-score): -0.101
[25]
  glycan array binding signal (z-score): 0.681
[26]
  glycan array binding signal (z-score): -0.159
[27]
  glycan array binding signal (z-score): -0.313
[28]
  glycan array binding signal (z-score): -0.379
[29]
  glycan array binding signal (z-score): -0.293
[30]
  glycan array binding signal (z-score): -0.327
[31]
  glycan array binding signal (z-score): -0.02
[32]
  glycan array binding signal (z-score): -0.341
[33]
  glycan array binding signal (z-score): -0.194
[34]
  glycan array binding signal (z-score): -0.214
[35]
  glycan array binding signal (z-score): -0.292
[36]
  glycan array binding signal (z-score): -0.211
[37]
  glycan array binding signal (z-score): -0.245
[38]
  glycan array binding signal (z-score): -0.394
[39]
  glycan array binding signal (z-score): 2.16
[40]
  glycan array binding signal (z-score): -0.336
[41]
  glycan array binding signal (z-score): 1.19
[42]
  glycan array binding signal (z-score): -0.348
[43]
  glycan array binding signal (z-score): -0.403
[44]
  glycan array binding signal (z-score): -0.373
[45]
  glycan array binding signal (z-score): 0.076
